# Laboratory results from the supplement of paper PMC3334620.
# The full ranking holds about 33,000 sequences; the median of “E-score (-0.5 to 0.5)” is about -0.032, and the highest 2% start at about 0.36. Some of the results follow.
# Molecular target: T1, Sko1 (UniProt Q02100)
# T1 sequence: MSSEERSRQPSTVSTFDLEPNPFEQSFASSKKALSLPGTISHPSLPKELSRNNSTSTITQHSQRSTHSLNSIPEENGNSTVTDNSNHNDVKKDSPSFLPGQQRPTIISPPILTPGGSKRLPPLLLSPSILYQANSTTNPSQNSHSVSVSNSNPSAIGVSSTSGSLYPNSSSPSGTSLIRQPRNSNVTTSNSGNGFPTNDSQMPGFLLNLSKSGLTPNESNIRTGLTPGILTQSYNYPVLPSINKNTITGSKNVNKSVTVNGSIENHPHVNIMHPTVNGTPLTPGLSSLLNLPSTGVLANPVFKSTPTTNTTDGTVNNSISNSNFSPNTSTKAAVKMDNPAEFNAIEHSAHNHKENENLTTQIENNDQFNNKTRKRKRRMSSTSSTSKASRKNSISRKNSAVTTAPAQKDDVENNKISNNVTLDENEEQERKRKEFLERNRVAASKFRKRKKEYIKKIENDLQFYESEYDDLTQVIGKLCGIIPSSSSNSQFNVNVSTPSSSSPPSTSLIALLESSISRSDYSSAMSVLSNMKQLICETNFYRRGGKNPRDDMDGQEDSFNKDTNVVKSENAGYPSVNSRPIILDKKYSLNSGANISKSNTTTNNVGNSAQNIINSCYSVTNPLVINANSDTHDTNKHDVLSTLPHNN
# Test: PBM E-score (8-mer binding enrichment) (E-score (-0.5 to 0.5)); higher = stronger / more preferred TF binding; most listed sequences are background and not binding sites
# Conditions: protein concentration: 200 nM; construct: GST-full length
# Method in brief: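 For each ungapped eight-base word taken together with its reverse complement, the Universal PBM Analysis Suite assigned an E-score. Binding data came from GST-tagged yeast transcription factors, applied at about 100-200 nM, on universal all-10-mer Agilent arrays made double-stranded by primer extension. Fluorescent anti-GST marked bound protein, and scans were normalised with masliner.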
row,Sequence,PBM E-score
1,ATTACTAA,0.205
2,ACATGCTG,0.0437
3,ATACTATG,0.098
4,CCTTAACG,0.0975
5,CACCACCA,-0.14
6,AAATGCGG,-0.0861
7,GTTTGAAA,0.166
8,ACAATGTG,0.044
9,GCCACATA,0.0614
10,CGCTTACC,-0.0338
11,ACATGCGT,0.203
12,CGACGGAC,0.0805
13,CCATTGGA,-0.211
14,GATGTGTA,0.0475
15,CATTTCGC,0.0468
16,ATCAAGCG,0.137
17,CTTTGCGC,0.193
18,AAAATGAA,-0.0162
19,GCGCATTA,0.0455
20,AGATCTTA,0.0261
21,CTTGCGCA,0.16
22,GTTACTCA,0.0403
23,CGTGATGC,0.322
24,CGGGATGC,-0.329
25,CCGACGGC,-0.262

row,Sequence,PBM E-score
1,CGTGTCAA,-0.0341
2,CAGTCCCG,-0.261
3,GCGATTAA,0.0926
4,AGTAGCTG,-0.146
5,AACTATAT,0.199
6,GAGGCGTA,0.0153
7,CGTGCTAG,0.0781
8,ATCATCTG,0.179
9,AAGATTTC,0.0128
10,ACCATTTG,-0.0957
11,TCAGACCA,0.0857
12,AGCTTGAA,-0.0717
13,GAACTAAA,0.0781
14,CCTTATGA,0.143
15,CCTTTCAG,-0.0989
16,GGAGCGCA,-0.272
17,CAAGTTAC,0.0695
18,ATTTTACC,0.252
19,CGCTTCCA,0.0987
20,GTTTGGAA,0.171
21,ATAGGCGG,-0.16
22,GGACAGAC,-0.187
23,CGCGACAC,0.0403
24,AGTGCGTA,0.376
25,GAAGGATC,-0.223

row,Sequence,PBM E-score
1,ACCACGTA,0.441
2,CGAGGAAG,-0.214
3,CGTGAGCA,0.095
4,CAATACCG,-0.186
5,ACTTCTCA,0.0756
6,GACAGTGC,0.0291
7,AGCATGGG,-0.252
8,GAATGAGA,-0.0934
9,AATGTGCA,0.02
10,AAGCAAGC,-0.0806
11,GTAAATAC,0.265
12,AGTGAGCG,-0.0041
13,GGAGTGCA,-0.278
14,TTGCGAAA,0.188
15,AAGTTTCC,0.0349
16,GAAAAGTA,0.0669
17,AGAGCTAG,-0.0335
18,GTAGTCAC,0.0182
19,CTAGAGGA,-0.188
20,AAGGGGTG,-0.304
21,ACTTCGAT,0.0534
22,CGCTACTC,-0.0678
23,AGTGTAGC,-0.0914
24,GCCTGCAA,-0.179
25,GATCTGCC,-0.116

row,Sequence,PBM E-score
1,AAAGAATC,-0.193
2,ACAGCAAT,0.0932
3,GAGCAGCA,0.0244
4,CCGTTCCC,-0.329
5,ATACGATC,0.109
6,ACAAGTGG,-0.0583
7,CGATGAAC,-0.161
8,AGGCGGTC,-0.34
9,CCTCGCGA,-0.272
10,ACATGCAA,0.0849
11,ATCCGTAC,0.151
12,CTTAAACC,-0.107
13,GACAATCA,0.00255
14,CGAGTAAG,-0.143
15,CACGTGGC,0.318
16,CCTGTTTA,-0.0982
17,GGACCACC,-0.183
18,GGCCCACA,-0.117
19,AGCTAGTA,0.0624
20,CTTCAAAC,-0.0693
21,GCGATGAA,-0.0296
22,AGCTAGCT,-0.00529
23,AGTATTTA,0.164
24,ATGGTAGA,-0.0774
25,CTGAAACA,0.136

row,Sequence,PBM E-score
1,AACACGGT,0.0994
2,GAGGAGGC,-0.241
3,CGATGTAG,-0.0725
4,CTTTCTTC,-0.0783
5,AACAAATT,0.222
6,GGAACATA,0.0323
7,CTAACGGA,0.007
8,AGAAATAC,0.181
9,AGGATACG,0.239
10,CGAATGAG,0.171
11,ATTTTACG,0.383
12,CCTCTAAC,-0.147
13,GGCTAAAA,-0.194
14,ACTGACAT,0.157
15,ATAGATCC,-0.125
16,AGACGAGA,-0.0307
17,TAATAACA,0.166
18,GCCATGTA,0.112
19,ACGATCCA,-0.104
20,AGACAAAG,-0.0355
21,CAGTAATC,0.0473
22,AACTTTAT,0.102
23,CCACTCCG,-0.189
24,CTTAGTCA,-0.0288
25,AAGCTACG,0.251

row,Sequence,PBM E-score
1,GTATTGGA,0.153
2,AAGGTTGG,-0.0488
3,GATTGAGA,0.163
4,GCATCGCA,-0.35
5,AATTAGAT,0.24
6,GCCGAAAC,-0.201
7,AACGATAC,0.0866
8,GATAGTCC,-0.141
9,GCAATGCC,-0.173
10,CCACGTAA,0.456
11,ATATTCAA,0.114
12,GGACAAGA,-0.223
13,ACCGGATC,-0.142
14,GTCCCCCA,-0.225
15,CCTAAGAA,0.105
16,TAACCCTA,0.0569
17,GCGTAGCA,0.225
18,ACCGCCGT,-0.264
19,TAGTTTAA,0.106
20,AACTCATT,-0.0146
21,CATGCATG,0.0909
22,AGTGGCCA,-0.0914
23,AGTACCGG,-0.122
24,AGAATACC,0.0988
25,CTAAGTAG,-0.00551

row,Sequence,PBM E-score
1,CGAGACTC,-0.155
2,GAGGTCGC,-0.214
3,GACCGGGC,-0.21
4,AATTACCA,0.151
5,GAGACTGA,-0.0471
6,CTAACCTA,0.0431
7,GAATCGAC,0.0216
8,GCCCATAA,-0.17
9,CGCTTACA,-0.0126
10,CTGTAGCC,-0.181
11,GCTCACCA,-0.0871
12,TGTAGCAA,-0.0122
13,GGGCAGGA,-0.183
14,AAGCTTCC,-0.128
15,ATTATGTC,0.336
16,GCTCCCCA,-0.157
17,CTTGGGCA,-0.17
18,ATCGGCGA,-0.273
19,AACGATTA,0.169
20,ATACGTAT,0.487
21,ATAGATTC,0.0666
22,ACCCTGCA,0.0472
23,CAACATGG,0.0728
24,ATGGCACG,0.114
25,GGGACGTA,0.319

row,Sequence,PBM E-score
1,AAAAGTGT,0.0593
2,ACATAACG,0.312
3,CCCCGTGC,-0.11
4,CCTTTATA,-0.0221
5,CGCGTACC,0.156
6,TACGACAA,0.279
7,GTGCGAAC,-0.119
8,AGCCTTTA,0.0785
9,ATCGCGGA,-0.186
10,CTACAGTC,-0.00457
11,ACCACTCC,-0.346
12,AGAAGATG,0.126
13,ACAGGTAT,0.109
14,AGATCCGG,-0.284
15,CCATGTTC,-0.124
16,AAAAGAAT,0.115
17,GACGCGAA,0.119
18,ACGCACGT,0.403
19,ACGATAGA,0.136
20,TCTAAAAA,0.00786
21,ACCTTTTC,-0.159
22,CTGCAGTA,-0.0765
23,GTTTGACA,0.133
24,CCCGCCGC,-0.0661
25,TGAAAGAA,0.0805

row,Sequence,PBM E-score
1,CGGGTAGA,-0.156
2,AAGGGGAG,-0.295
3,CATCACCA,0.136
4,CCTCCACG,0.0433
5,ATTTGCGA,0.155
6,ACCTCATG,0.0466
7,GCCGCAGC,-0.205
8,GGAGAATA,0.0913
9,GTTTTAAA,0.098
10,GCGGGTGA,-0.0158
11,CAGAAGCG,-0.0267
12,CGTGCGGC,0.00261
13,ACCGTAGC,-0.0407
14,GTAATTAC,0.367
15,GTGTCCAA,0.142
16,TAGTTGCA,0.155
17,GATATTTA,0.124
18,CGTCAACC,0.344
19,CAGGGAGG,-0.23
